# From PubChem BioAssay (NCATS)
# This list was built around the results that the source calls inconclusive (neither active nor inactive); the mix of calls is not that of the screen. For part of these data: Potencies of inconclusive entries are left out as doubtful fits. For part of these data: “Side channel” marks fits to a control or component signal instead of the main read-out. Activity calls are given as the source filed them. Unless noted, calls follow the shape of the dose curve; as a rule, active = well fitted curve in the direction sought with a large enough effect; inconclusive = small, poorly fitted or top-dose-only effect, or another doubt; inactive = no such curve, though single readings can be large; an effect the other way counts as inactive or inconclusive.
# What was measured:
# [1] = qHTS Assay for Identification of Small Molecule Antagonists for NFkB Signaling Pathway (AID 895; active = well fitted inhibition curve with a large enough effect in the signal ratio, with a control signal flat, not every such curve was filed as active; inconclusive = small, poorly fitted or top-dose-only effect, or effect the other way, or a change in a side signal; the % refers to the signal ratio; also: potency is read from the fitted curve at half-maximal effect; as to activity change, negative = inhibition: % is scaled to controls: 0 for no effect and ±100 for the full control effect); details: NFkB beta-lactamase reporter cells, FRET ratio 460/530, stimulated with 10 pM TNF alpha; activity change, negative = inhibition: at 38.3 µM (top of the series)
# How it was run: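 NFkB-bla ME-180 cervical carcinoma cells with beta-lactamase reporter under NFkB response element; compounds added, then TNF alpha at 10 pM final (EC50), 5 h at 37 C. LiveBLAzer substrate 2 h, room temperature; emission 460/530 nm at 405 nm excitation.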
# [2] = qHTS Assay for Identification of Small Molecule Antagonists for Thrombopoietin (TPO) Signaling Pathway (AID 918); details: TPO-dependent cell signaling reporter, antagonist mode; activity change, negative = inhibition: at 38.5 µM (top of the series); also: nearly all actives have a fitted effect of over 60% in size
# How it was run: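 Antagonist mode at EC50 TPO (26 pM) in IL-3-free medium; murine Ba/F3 cells with human TPO receptor and GPIIb-promoter luciferase, 24 hrs at 37 C before luminescent detection.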
# [3] = target: Muscarinic acetylcholine receptor M1 (Rattus norvegicus) (UniProt P08482); test: qHTS Assay for Antagonists of Acetylcholine Muscarinic M1 Receptor: Measurement of IP-One Response (AID 944); also: nearly all actives have a fitted effect of over 75% in size; also: potency is read from the fitted curve at half-maximal effect
# UniProt P08482, sequence (P08482 whole entry, looked up): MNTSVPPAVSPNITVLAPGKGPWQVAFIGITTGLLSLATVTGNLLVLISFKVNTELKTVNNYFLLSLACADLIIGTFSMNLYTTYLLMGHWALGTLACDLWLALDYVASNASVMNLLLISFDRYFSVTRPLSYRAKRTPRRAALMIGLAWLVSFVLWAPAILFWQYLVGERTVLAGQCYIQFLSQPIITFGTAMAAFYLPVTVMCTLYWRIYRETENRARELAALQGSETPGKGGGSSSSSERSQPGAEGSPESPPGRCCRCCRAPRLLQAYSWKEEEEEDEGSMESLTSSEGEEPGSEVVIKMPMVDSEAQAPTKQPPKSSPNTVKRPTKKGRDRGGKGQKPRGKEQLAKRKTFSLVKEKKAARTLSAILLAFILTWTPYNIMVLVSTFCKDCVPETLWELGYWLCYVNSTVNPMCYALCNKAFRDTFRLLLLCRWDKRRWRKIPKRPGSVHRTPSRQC
# [4] = qHTS for differential inhibitors of proliferation of Plasmodium falciparum line 7G8 (AID 1815);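 also: potency is read from the fitted curve at half-maximal effect; parasite growth measured after three days of incubation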
# [5] = qHTS for differential inhibitors of proliferation of Plasmodium falciparum line GB4 (AID 1816); details: Potency: Plasmodium falciparum GB4 proliferation inhibition;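 also: parasite growth measured after 72 h incubation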; also: potency is read from the fitted curve at half-maximal effect;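 as to activity change, negative = inhibition: 0% = vehicle DMSO and -100% = reference inhibitor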
# [6] = qHTS for differential inhibitors of proliferation of Plasmodium falciparum line 3D7 (AID 1876); also: potency is read from the fitted curve at half-maximal effect
# [7] = target: Ferritin light chain (Equus caballus) (UniProt P02791); test: qHTS Validation Assay for Identification of Novel General Anesthetics (AID 2323); also: potency is read from the fitted curve at half-maximal effect; as to activity change, negative = inhibition: % is scaled to controls: 0 for no effect and ±100 for the full control effect
# UniProt P02791, sequence (P02791 whole entry, looked up): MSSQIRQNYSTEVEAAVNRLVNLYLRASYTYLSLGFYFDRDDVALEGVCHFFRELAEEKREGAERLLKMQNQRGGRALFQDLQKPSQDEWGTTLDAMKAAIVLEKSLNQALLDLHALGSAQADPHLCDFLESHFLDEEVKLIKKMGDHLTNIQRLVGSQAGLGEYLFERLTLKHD
# How it was run: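 Horse-spleen apoferritin (10 uM) in PBS with 50% saturated 1-aminoanthracene; compounds pin-transferred, 10 min at room temperature. Fluorescence read at 380/535 nm, normalized to free 1-AMA and 1-AMA/apoferritin values; four-parameter Hill fit.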
# [8] = target: Thioredoxin reductase 1, cytoplasmic (Rattus norvegicus) (UniProt O89049); test: qHTS Assay for Inhibitors of Mammalian Selenoprotein Thioredoxin Reductase 1 (TrxR1) (AID 488773); details: Potency: inhibition;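 also: drop in NADPH fluorescence over an 8 min run after selenite addition; % is scaled to controls: 0 for no effect and ±100 for the full control effect; nearly all actives have a fitted effect of over 40% in size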
# UniProt O89049, sequence (O89049 whole entry, looked up): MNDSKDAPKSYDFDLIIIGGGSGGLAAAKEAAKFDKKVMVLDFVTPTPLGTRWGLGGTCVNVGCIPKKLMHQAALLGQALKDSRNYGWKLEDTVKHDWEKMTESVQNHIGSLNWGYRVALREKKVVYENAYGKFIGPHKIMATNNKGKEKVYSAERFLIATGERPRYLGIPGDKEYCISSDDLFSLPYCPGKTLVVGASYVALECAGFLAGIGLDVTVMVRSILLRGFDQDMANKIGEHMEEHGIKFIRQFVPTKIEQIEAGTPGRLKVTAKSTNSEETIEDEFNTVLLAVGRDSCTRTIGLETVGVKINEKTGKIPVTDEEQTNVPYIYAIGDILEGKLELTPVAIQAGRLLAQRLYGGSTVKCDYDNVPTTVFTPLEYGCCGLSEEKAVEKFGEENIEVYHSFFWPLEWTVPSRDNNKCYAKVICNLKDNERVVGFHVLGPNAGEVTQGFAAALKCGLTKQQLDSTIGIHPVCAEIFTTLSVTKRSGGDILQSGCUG
# How it was run: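 Inhibition is scored from the loss of NADPH fluorescence between first and last reads of an 8-min kinetic run. Selenite (400 uM) was the substrate, added after 15 min compound preincubation at room temperature.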
# [9] = target: Chromobox protein homolog 1 (Homo sapiens) (UniProt P83916); test: qHTS Validation Assay for Inhibitors of HP1-beta Chromodomain Interactions with Methylated Histone Tails (AID 488953); also: potency is read from the fitted curve at half-maximal effect; nearly all actives have a fitted effect of over 50% in size
# UniProt P83916, sequence (P83916 whole entry, looked up): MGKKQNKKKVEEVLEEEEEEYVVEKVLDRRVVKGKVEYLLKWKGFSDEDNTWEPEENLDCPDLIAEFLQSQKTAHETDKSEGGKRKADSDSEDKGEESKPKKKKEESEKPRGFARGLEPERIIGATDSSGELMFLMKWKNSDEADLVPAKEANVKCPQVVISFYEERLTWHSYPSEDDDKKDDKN
# How it was run: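 Compounds pinned into a preassembled complex of HP1-beta and trimethyl-K9 histone H3(1-18) biotin peptide (50 nM each; PBS pH 7.4, 0.01% Tween-20). After 30 min, bead-based AlphaScreen detection followed.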
# [10] = target: Peptidyl-prolyl cis-trans isomerase NIMA-interacting 1 (Homo sapiens) (UniProt Q13526); test: qHTS Validation Assay to Find Inhibitors of Pin1 (AID 504536; active = well fitted inhibition curve with a large enough effect in the polarisation, with a control signal flat, not every such curve was filed as active; inconclusive = small, poorly fitted or top-dose-only effect, or effect the other way; the % refers to the polarisation; also: potency is read from the fitted curve at half-maximal effect)
# UniProt Q13526, sequence (Q13526 whole entry, looked up): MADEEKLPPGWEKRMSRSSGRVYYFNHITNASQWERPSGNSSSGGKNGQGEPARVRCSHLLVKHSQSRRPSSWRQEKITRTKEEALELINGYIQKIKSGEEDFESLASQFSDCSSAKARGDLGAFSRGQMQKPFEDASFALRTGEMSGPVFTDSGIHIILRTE
# How it was run: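 Fluorescence polarization competition: compounds (titration) displace HiFluor-488-labeled Pin1-1b peptide from Pin1 (0.3 uM final) in pH 7.5 HEPES buffer with DTT, 10 min at room temperature; %Activity normalized to no-enzyme wells, curves fitted.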
# [11] = target: Glutaminase kidney isoform, mitochondrial (Homo sapiens) (UniProt O94925); test: qHTS for Inhibitors of Glutaminase (GLS): LOPAC Validation (AID 624146); also: nearly all actives have a fitted effect of over 60% in size; also: potency is read from the fitted curve at half-maximal effect;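 as to activity change, negative = inhibition: glutamate product detected by oxidase and peroxidase coupled Amplex red fluorescence gain; % is scaled to controls: 0 for no effect and ±100 for the full control effect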
# UniProt O94925, sequence (O94925 whole entry, looked up, canonical isoform): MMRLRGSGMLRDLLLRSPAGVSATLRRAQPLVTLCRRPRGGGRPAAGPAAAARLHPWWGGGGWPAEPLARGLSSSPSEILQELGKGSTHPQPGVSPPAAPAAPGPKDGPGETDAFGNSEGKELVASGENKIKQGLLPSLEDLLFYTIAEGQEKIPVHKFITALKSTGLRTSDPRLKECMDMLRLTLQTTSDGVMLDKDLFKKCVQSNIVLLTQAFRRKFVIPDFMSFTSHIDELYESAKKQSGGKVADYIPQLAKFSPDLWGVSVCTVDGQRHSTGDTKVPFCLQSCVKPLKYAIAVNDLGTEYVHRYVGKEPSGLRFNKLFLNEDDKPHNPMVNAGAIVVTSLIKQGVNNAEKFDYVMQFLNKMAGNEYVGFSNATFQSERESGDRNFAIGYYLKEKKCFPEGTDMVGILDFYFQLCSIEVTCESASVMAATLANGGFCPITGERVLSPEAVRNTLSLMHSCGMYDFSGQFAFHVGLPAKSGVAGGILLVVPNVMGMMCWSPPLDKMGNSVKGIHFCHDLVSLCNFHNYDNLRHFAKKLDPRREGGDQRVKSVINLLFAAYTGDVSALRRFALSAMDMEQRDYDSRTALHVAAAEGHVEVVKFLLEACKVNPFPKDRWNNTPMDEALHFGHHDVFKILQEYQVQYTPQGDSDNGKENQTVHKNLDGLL
# How it was run: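 Read-out is an Amplex red fluorescence increase coupled through glutamate oxidase and HRP, measured before and after 30 min room-temperature incubation. hKGA is in 45 mM KH2PO4 (pH 8.2) with 0.02% Tween-20; glutamine added as 1mM solution.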
# [12] = target: N-terminal Xaa-Pro-Lys N-methyltransferase 1 (Homo sapiens) (UniProt Q9BV86); test: qHTS Assay for Inhibitors of N-terminal methyltransferase 1 (NTMT1): LOPAC validation of the NTMT1 SAHH-coupled ThioGlo3 Assay (AID 1347143);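 also: SAH from peptide methylation measured as thiol fluorescence via SAHH coupling and ThioGlo3; potency is read from the fitted curve at half-maximal effect; nearly all actives have a fitted effect of over 70% in size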
# UniProt Q9BV86, sequence (Q9BV86 whole entry, looked up): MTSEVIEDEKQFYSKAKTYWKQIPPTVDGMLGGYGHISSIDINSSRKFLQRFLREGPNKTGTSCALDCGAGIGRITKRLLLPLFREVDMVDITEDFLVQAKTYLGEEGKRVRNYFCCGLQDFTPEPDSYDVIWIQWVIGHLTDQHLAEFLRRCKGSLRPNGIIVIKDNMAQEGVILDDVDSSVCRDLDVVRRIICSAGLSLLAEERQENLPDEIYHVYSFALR
# How it was run: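 In this qHTS pilot against the LOPAC set, 125nM NTMT1 met compounds tested at multiple concentrations, and fluorescence was normalized to background.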
# Papain (Carica papaya) = Papain (Carica papaya) (UniProt P00784); test: Primary qHTS assay for inhibitors of the protease papain (AID 1645873);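 also: papain turnover of Z-FR-AMC read as the AMC fluorescence gain over 10 min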; also: potency is read from the fitted curve at half-maximal effect; as to activity change, negative = inhibition: % is scaled to controls: 0 for no effect and ±100 for the full control effect
# UniProt P00784, sequence (P00784 whole entry, looked up): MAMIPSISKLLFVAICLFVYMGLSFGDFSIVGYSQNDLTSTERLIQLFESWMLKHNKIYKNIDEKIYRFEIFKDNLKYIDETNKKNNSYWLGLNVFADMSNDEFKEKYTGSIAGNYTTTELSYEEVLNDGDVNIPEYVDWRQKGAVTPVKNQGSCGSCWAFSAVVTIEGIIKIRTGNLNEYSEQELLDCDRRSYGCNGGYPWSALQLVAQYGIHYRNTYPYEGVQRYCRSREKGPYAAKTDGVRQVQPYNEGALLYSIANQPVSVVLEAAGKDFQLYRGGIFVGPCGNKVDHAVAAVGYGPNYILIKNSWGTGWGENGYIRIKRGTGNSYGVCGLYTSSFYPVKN
# [13] = target: D(1A) dopamine receptor (Homo sapiens) (UniProt P21728); test: HTS Assay for Allosteric Agonists of the Human D1 Dopamine Receptor: Primary Screen for Antagonists (AID 488983); details: D1 receptor cell assay, antagonist mode, qHTS titration; activity change, negative = inhibition: at 41.8 µM (top of the series);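 also: calcium flux response to an EC80 dopamine challenge measured with no-wash dye; potency is read from the fitted curve at half-maximal effect; nearly all actives have a fitted effect of over 65% in size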
# UniProt P21728, sequence (P21728 whole entry, looked up): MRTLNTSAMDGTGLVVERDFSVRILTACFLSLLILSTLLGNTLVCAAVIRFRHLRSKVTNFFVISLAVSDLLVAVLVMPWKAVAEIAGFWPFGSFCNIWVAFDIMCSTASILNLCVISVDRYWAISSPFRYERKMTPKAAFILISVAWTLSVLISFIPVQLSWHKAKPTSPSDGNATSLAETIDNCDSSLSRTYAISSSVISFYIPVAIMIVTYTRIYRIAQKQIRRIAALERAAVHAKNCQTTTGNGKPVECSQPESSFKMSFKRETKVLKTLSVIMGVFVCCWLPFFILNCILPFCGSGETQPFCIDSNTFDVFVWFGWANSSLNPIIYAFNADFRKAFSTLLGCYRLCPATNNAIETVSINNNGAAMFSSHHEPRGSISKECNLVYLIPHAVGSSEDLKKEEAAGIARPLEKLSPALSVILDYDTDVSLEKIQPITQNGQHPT
# How it was run: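 In this primary screen, compounds are applied to calcium-dye-loaded HEK293 T-REx cells with force-coupled D1 expression induced overnight at 30 C. An EC80 of dopamine follows the 180 s compound phase, and calcium is monitored for a further 180 s.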
# [14] = qHTS Assay for Identifying Gametocytocidal Compounds (AID 743244); also: potency is read from the fitted curve at half-maximal effect; details: P. falciparum 3D7 stage III-V gametocytes, alamarBlue, 72 h; max response: hits give low values
# How it was run: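 P. falciparum 3D7 stage III–V gametocytes (20,000 cells/well) were exposed to compounds for 72 h at 37 °C, 5% CO2. AlamarBlue was then added for 24 h; decreased resorufin fluorescence (Ex 525/Em 598 nm) indicated loss of viability.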
# [15] = qHTS for differential inhibitors of proliferation of Plasmodium falciparum line Dd2 (AID 1882); details: Potency: Plasmodium falciparum Dd2 proliferation inhibition; also: nearly all actives have a fitted effect of over 65% in size; also: potency is read from the fitted curve at half-maximal effect;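 as to activity change, negative = inhibition: compound exposure of 72 h on infected erythrocytes; plate controls were DMSO vehicle for no effect and 0.29 µM artemisinin for full effect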
# How it was run: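 RBC culture, 0.3% parasitemia / 2.5% Hct final; cpd added by pin tool in DMSO; 72 h, 37 C, 5% CO2; lysis buffer + SYBR Green I, o/n RT dark; FI 485/535; norm. to artemisinin 0.29 uM and DMSO.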
# [16] = qHTS for differential inhibitors of proliferation of Plasmodium falciparum line D10 (AID 1877);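 also: parasites grown with compound for 72 h before DNA staining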; also: potency is read from the fitted curve at half-maximal effect;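 as to activity change, negative = inhibition: plate controls were vehicle wells for no effect and reference inhibitor wells for full effect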
# [17] = target: Phospholipid hydroperoxide glutathione peroxidase GPX4 (Homo sapiens) (UniProt P36969); test: Primary qHTS Assay for Inhibitors of Recombinant Selenoprotein Glutathione Peroxidase 4 (GPX4) (AID 1845192); details: activity change, negative = inhibition: at 50 µM (top of the series) unless noted; also: % is scaled to controls: 0 for no effect and ±100 for the full control effect; nearly all actives have a fitted effect of over 65% in size
# UniProt P36969, sequence (P36969 whole entry, looked up): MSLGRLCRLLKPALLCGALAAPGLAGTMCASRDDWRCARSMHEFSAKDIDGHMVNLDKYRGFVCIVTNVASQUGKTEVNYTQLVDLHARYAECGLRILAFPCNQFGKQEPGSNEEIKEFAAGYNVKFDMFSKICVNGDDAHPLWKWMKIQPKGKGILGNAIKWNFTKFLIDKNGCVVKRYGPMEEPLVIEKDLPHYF
# How it was run: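 qHTS, GR-coupled: GPX4 200 nM + cpd 30 min RT → GSH 1 mM, NADPH 0.5 mM, GR 100 nM → CHP 0.5 mM start; fluor 340/450 at t0 and t15 min; no-enzyme wells as control.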
# Tags tell the direction and shape of the fitted curve or compound fluorescence and quenching.
structure (smiles),measurement,setting,value
O=C(c1cc(O)c(O)c([N+](=O)[O-])c1)c1ccccc1F,Potency,[1],"inconclusive [inhibitor, full curve, poor fit]"
same,"activity change, negative = inhibition",[2],inconclusive: -14.7% [phenotype inactive]
same,Potency,[3],inactive
same,Potency,[4],"inconclusive [inhibitor, single point]"
same,Potency,[5],"inconclusive [inhibitor, partial curve, poor fit]"
same,Potency,[6],inactive
same,Potency,[7],"inconclusive [inhibitor, partial curve]"
same,Potency,[8],inactive
same,Potency,[9],"inconclusive [inhibitor, partial curve]"
same,Potency,[10],"inconclusive [falling, partial curve, poor fit]"
same,Potency,[11],active: 4.47 µM
same,Potency,[12],active: 56.2 µM
same,Potency,Papain (Carica papaya),"inconclusive [inhibitor, full curve]"
Cc1cc2c(cc1Cl)N(C(=O)Nc1ccc(Oc3cccnc3C)nc1)CC2,Potency,[8],inactive
same,Potency,[13],active: 14.1 µM
same,Potency,[14],"inconclusive [inhibitor, single point]"
same,Potency,[12],active: 8.91 µM
same,Potency,Papain (Carica papaya),inactive
COc1cc2c(CCNC(C)=O)c[nH]c2cc1Cl,Potency,[1],"inconclusive [activator, partial curve]"
same,Potency,[3],"inconclusive [inhibitor, partial curve, poor fit]"
same,Potency,[15],inactive
same,Potency,[7],inactive
same,Potency,[11],"inconclusive [inhibitor, full curve]"
N#CC(=C(\N)Sc1ccccc1N)/C(C#N)=C(/N)Sc1ccccc1N,Potency,[6],active: 3.98 µM
same,Potency,[16],active: 2 µM
same,Potency,[15],active: 7.08 µM
same,Potency,[11],active: 12.6 µM
same,Potency,Papain (Carica papaya),"inconclusive [inhibitor, partial curve]"
CCCCCCCCCCCCCCCCCC(=O)OC(CC(=O)O)C[N+](C)(C)C (centres undefined),Potency,[5],inactive
same,Potency,[16],inactive
same,Potency,[15],inactive
same,Potency,[7],"inconclusive [inhibitor, full curve]"
same,Potency,[13],"inconclusive [inhibitor, partial curve, poor fit]"
same,Potency,[11],inactive
same,Potency,[12],"inconclusive [inhibitor, partial curve, poor fit]"
CC[C@@H]1Cc2cc(O)ccc2C2=C1c1ccc(O)cc1C[C@H]2CC,Potency,[1],"inconclusive [cytotoxic, side channel, partial curve, poor fit]"
same,Potency,[3],"inconclusive [inhibitor, partial curve, poor fit]"
same,Potency,[4],active: 5.62 µM
same,Potency,[6],active: 11.2 µM
same,Potency,[16],active: 11.2 µM
same,Potency,[15],"inconclusive [inhibitor, single point]"
same,Potency,[8],inactive
same,Potency,[13],"inconclusive [activator, partial curve]"
same,Potency,[11],active: 0.794 µM
same,Potency,Papain (Carica papaya),active: 5.01 µM
CCCC(=O)NCCc1c2n(c3ccc(OC)cc13)CCCc1ccccc1-2,Potency,[1],inactive
same,Potency,[3],inactive
same,Potency,[6],"inconclusive [inhibitor, single point]"
same,Potency,[16],active: 12.6 µM
same,Potency,[15],"inconclusive [inhibitor, partial curve]"
same,Potency,[9],active: 35.5 µM
same,Potency,[12],"inconclusive [inhibitor, partial curve, poor fit]"
same,Potency,Papain (Carica papaya),"inconclusive [inhibitor, partial curve, poor fit]"
same,Potency,[17],inactive
